Assay results reported in the supplement of paper PMC10126150.
Values marked as one replicate rest on one cluster of the flow cell; about a third of the high ones do not repeat.

System: ATP
Assay: switch fluorescence ratio, 500 uM ATP over buffer (Cy3 cluster intensity, sum of 5 cycles each) (fold (ratio)); higher = stronger signal-on switching upon ATP binding; sequences stand for … in TCGTCGGCAGCGTCAGATGTGTATAAGAGACAGTTTTTTTTTTTTTTTTTTTTTTTTT…TC
Conditions: aptamer strand: ATP DNA aptamer (quencher-CACCTGGGGGAGTATTGCGGAGGAAGG + anchor), 100 nM annealed; ATP concentration: 500 uM; one replicate
Outline: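 The fluorescence ratio divides summed target-cycle Cy3 intensity by summed buffer-cycle Cy3 intensity for each cluster and is averaged per switch-domain sequence. Cy3-labelled switching-strand clusters on a modified Illumina MiSeq flow-cell were annealed to 100 nM quencher-labelled ATP aptamer, then imaged in selection buffer and again after 15 min with 500 uM ATP at 22 °C. Five such cycles were run, with NaOH stripping and re-annealing between them, and clusters outside 100-1000 RFU were excluded.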
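Further: ATP exposure 15 min at 22 °C before imaging.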

Row | Sequence | switch fluorescence ratio
1 | CGGTGAGTTT | 0.945
2 | TCGGTGGTTA | 0.939
3 | GGATCAATCT | 0.974
4 | AGCCGCGGTG | 1
5 | GCATCTCTGA | 0.964
6 | TTCTACTGTG | 0.987
7 | TATTGAAAAC | 0.999
8 | AAGCTGCTAG | 0.98
9 | TAGTAAAGTG | 1.05
10 | TGAAAAAACC | 1.13
11 | CCGTACAGTT | 1.07
12 | CGCATTGGTT | 1.09
13 | CAGGATGCAA | 1.24
14 | CGTAGGGGAT | 1
15 | CAGGGATAAT | 0.979
16 | CTCTAGGTAC | 3.27
17 | TTGCATCGTA | 1.03
18 | GATCTCAAAG | 0.961
19 | CTTGGGCCTG | 1.2
20 | AGGGGCTTCA | 1.03
21 | GTCACGCCCC | 1.28
22 | CGATGCGGAT | 1.04
23 | CGATGCTCAC | 4.12
24 | TTCTGGTAAG | 0.995
25 | GTCCGATTGT | 0.985
26 | TAGCCGGTTT | 0.982

Row | Sequence | switch fluorescence ratio
27 | CGGTTGAAAA | 1.01
28 | TCGACCGCGT | 1.2
29 | GTCAAACTGA | 0.966
30 | CTGGGCCTGT | 1.08
31 | TGGGGGATCC | 0.977
32 | GCGTTTTCTC | 0.979
33 | CGGCGCCTCG | 1.04
34 | ACGACTTCGC | 1.3
35 | CGATCTTAAG | 0.959
36 | CTAGTGTTTT | 1.04
37 | CACAACTGC | 1.04
38 | CTTGTTCCCC | 0.951
39 | GAGGCAACAT | 1.51
40 | GATATGAGTA | 1.02
41 | GGAGATAATT | 1.02
42 | TTCTGTCCTT | 1.01
43 | CGATTCAATA | 1.67
44 | CGCCGCAGAA | 4.5
45 | TGTCCTTGCA | 1.06
46 | CCAAAACCCG | 1.08
47 | ACGCGACCTG | 1.15
48 | CTTGGGGTG | 0.998
49 | TGCCGTATTA | 1.02
50 | GGGATACCGC | 1.11
51 | TTACTGCGTT | 0.974
52 | GGCTTCTATG | 0.957

Row | Sequence | switch fluorescence ratio
53 | CTCCTTAGGG | 1.1
54 | TCAGGTCCAG | 1.02
55 | ACGGCCGGAG | 1.05
56 | CGTTCTCGTT | 0.952
57 | GGATCTGGGT | 1.05
58 | GAGCCCGGAA | 1.09
59 | CGGGAATGCG | 1.04
60 | GACTTGGGCA | 1.02
61 | ATTAGACGAA | 1.01
62 | CTTGTAGCTG | 0.975
63 | ATGTTTGACG | 1.15
64 | TACAGCCCAA | 0.892
65 | AGAGGGCTAC | 1
66 | GTTAGGTACC | 0.962
67 | TATACATCCA | 1.11
68 | GTCGATTGTG | 1.05
69 | CCACCAGTTA | 1.22
70 | AATGGTATTG | 0.978
71 | TTGATCGTTG | 1.02
72 | ACGTCGCCT | 0.992
73 | TGGCTTTGT | 1.01
74 | AAGATCACCG | 1.04
75 | TCAAGATTGT | 0.995
76 | GGGGAAGTGA | 0.975
77 | ATATTGGGAA | 0.985
78 | AGGGACCCTG | 0.997

Row | Sequence | switch fluorescence ratio
79 | ATCGTGCGCG | 1.01
80 | CAATCGTACG | 0.941
81 | ACTCTCGTCG | 0.999
82 | CGTCGATCAA | 0.996
83 | GCAATATCAA | 1.25
84 | TGGTTTTACA | 0.966
85 | ATTTCTGGCC | 0.999
86 | CTCTGTAT | 1.09
87 | ATTCGTGAAA | 0.993
88 | TTTAAAGAAC | 1
89 | TTGCTGAGGG | 0.98
90 | CTTTCACCT | 1.08
91 | GTTACGGTAG | 1.07
92 | GCAAGGAAAA | 1.03
93 | AGAAATGAAG | 0.974
94 | ATGTGGTGAA | 1.04
95 | ACTGGACAG | 1
96 | TCTCGAATTT | 1.01
97 | TTAGCGCCTA | 0.986
98 | TTGGGACTGA | 0.985
99 | GAAGCAGGTG | 2.7
100 | AGATAGAAGT | 1.01
101 | AGGGCAAGTC | 1.12
102 | GATTGTAACA | 0.992
103 | TCAGGACACA | 1.03
104 | AAACGAAACA | 1.08

Row | Sequence | switch fluorescence ratio
105 | TTTGTGCCA | 0.987
106 | AGGGAGTG | 0.953
107 | ATGCTACACT | 1.04
108 | TCTTGTCAAT | 1.06
109 | CGGAGTCACG | 1.04
110 | AATGCGTCGT | 0.919
111 | ACTGCACATA | 1.42
112 | TAAGCAAGTT | 1.01
113 | CGTATCTTTG | 0.975
114 | TGTATGGTAC | 1.05
115 | AAGTCAAGAA | 1.04
116 | GTGTTATCTT | 0.98
117 | GTATCGGAGG | 1.02
118 | CCGATAGGT | 1.02
119 | ATCGAAAAGC | 1.04
120 | TATCTCAGTG | 0.948
121 | AACGGAATTG | 1.07
122 | TTCGATTAGC | 1.05
123 | AACCCTGCCT | 1.27
124 | CGGTTTTTGA | 0.992
125 | ATGTCTGGTG | 1.04
126 | TCTTAATCGT | 1.02
127 | AAGGATTAGG | 0.947
128 | TTGTATGAGC | 0.988
129 | TTCTTGGAAC | 1.03
130 | TGTCTAAAGT | 0.986

Row | Sequence | switch fluorescence ratio
131 | GAGGCCTACT | 1.94
132 | GGCTCACATC | 0.995
133 | CTAGTATTCA | 0.995
134 | TTAGTACTGG | 1.02
135 | GGCGCGGGCT | 0.933
136 | ATGAAATTT | 0.996
137 | GAGTTGTTTG | 0.996
138 | ATGATTTGAT | 0.978
139 | AACGATCGTC | 1.01
140 | TCTGATAG | 0.983
141 | CGTTAGACCC | 1.02
142 | TAGAAAACGG | 1.02
143 | AGATGGTTG | 0.95
144 | TAACTGACTT | 1.04
145 | TGCGTTGGAA | 0.998
146 | TGGACCGCGC | 0.973
147 | CGACATGATG | 1.01
148 | AGCGCGTGTA | 0.983
149 | ATCTTGCGC | 1.03
150 | GAATTCCATT | 0.993
151 | AGGCCGGAGG | 1.03
152 | CTATTGTTAC | 1.03
153 | TCGGTGGCGA | 1
154 | AAGCGTTCTG | 0.997
155 | CTTTTCCAAC | 1.22
156 | CTTTGAGTTT | 0.978

Row | Sequence | switch fluorescence ratio
157 | CTTGTCGGA | 1.02
158 | ACTACACTAA | 1.29
159 | CGACCGCTTT | 3.3
160 | AGAAGATCTC | 0.975
161 | AGGGAGGCTT | 1.01
162 | ACTAAACAGA | 1.06
163 | TAAATGGATG | 0.966
164 | AATTTTCCGA | 1.1
165 | GCCCTGTTCC | 0.997
166 | ATGTCTGCCG | 1.07
167 | CGAGACCATG | 1.04
168 | ACAACGCGTC | 1.1
169 | GGTGAGACGT | 1.09
170 | AATACAACAC | 1.16
171 | ACCGATCGGG | 0.99
172 | TTTTACAGGG | 0.999
173 | CAATAACACA | 1.15
174 | GTAAATTAGC | 0.986
175 | CCAAGATC | 1.29
176 | ATTGACGCAC | 1.93
177 | TGGGGGTCCA | 0.987
178 | TATCCTCATC | 1.02
179 | CATCTAATTG | 0.995
180 | AGATTTAGTG | 0.992
181 | CAAGTTTGTT | 1.02
182 | AATAGAGTCT | 1.04

Row | Sequence | switch fluorescence ratio
183 | GGTGGATAGA | 1.03
184 | AGCTTTTCTC | 1.02
185 | TCAGAGGCAC | 1.1
186 | ACAGAGAATA | 0.999
187 | GGTCGGTACT | 0.993
188 | TGCGTTCATC | 1.03
189 | CAGGACGCA | 1.55
190 | TTCGCTGGAG | 1.01
191 | AAGTACGATT | 1.25
192 | TTAAGGATAT | 1.03
193 | GGTAGGACGC | 0.987
194 | GATGAAGTAA | 1.04
195 | TAAAATGAGC | 0.958
196 | CGTTCATATT | 0.985
197 | CTGTGTAGGC | 1.05
198 | CGGTATGAGA | 1.02
199 | ATCTACCTCA | 1.02
200 | GTCTTATGCG | 1.04
201 | TGTTTTTGTC | 1.08
